For experiment [1], the target named is T1, T7-tagged C-terminal fragment of Pasha (334–642) (Drosophila) (UniProt Q9V9V7).
T1 sequence: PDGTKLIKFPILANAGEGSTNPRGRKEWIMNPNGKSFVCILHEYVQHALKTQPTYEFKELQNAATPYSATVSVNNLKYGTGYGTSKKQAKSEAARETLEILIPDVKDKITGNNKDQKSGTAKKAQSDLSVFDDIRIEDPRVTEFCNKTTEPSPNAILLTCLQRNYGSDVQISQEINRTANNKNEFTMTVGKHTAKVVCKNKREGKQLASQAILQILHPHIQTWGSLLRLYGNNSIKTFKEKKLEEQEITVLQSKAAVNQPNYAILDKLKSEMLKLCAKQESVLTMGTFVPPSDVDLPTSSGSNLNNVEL
Nature of the experiment: co-IP; lysates of S2 cells expressing T7-tagged full length or truncated Pasha, immunoprecipitated with anti-T7 antibody; endogenous Drosha detected by immunoblotting with anti-Drosha. (In general: In western blotting, separated proteins are transferred to a membrane and probed.)

Amino acid sequences for entries named in this document (tags omitted).
UniProt Q9VU02: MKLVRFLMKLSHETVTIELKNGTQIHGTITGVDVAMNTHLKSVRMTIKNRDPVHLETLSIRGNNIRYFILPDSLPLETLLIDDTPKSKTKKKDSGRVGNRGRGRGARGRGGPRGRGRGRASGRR
UniProt Q9VI10: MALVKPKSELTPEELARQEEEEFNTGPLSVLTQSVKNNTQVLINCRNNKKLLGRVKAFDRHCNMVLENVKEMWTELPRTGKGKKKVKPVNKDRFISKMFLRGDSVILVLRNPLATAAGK

Experiment [2] addresses T2, T7-tagged full length Pasha (Drosophila) (UniProt Q9V9V7).
T2 sequence: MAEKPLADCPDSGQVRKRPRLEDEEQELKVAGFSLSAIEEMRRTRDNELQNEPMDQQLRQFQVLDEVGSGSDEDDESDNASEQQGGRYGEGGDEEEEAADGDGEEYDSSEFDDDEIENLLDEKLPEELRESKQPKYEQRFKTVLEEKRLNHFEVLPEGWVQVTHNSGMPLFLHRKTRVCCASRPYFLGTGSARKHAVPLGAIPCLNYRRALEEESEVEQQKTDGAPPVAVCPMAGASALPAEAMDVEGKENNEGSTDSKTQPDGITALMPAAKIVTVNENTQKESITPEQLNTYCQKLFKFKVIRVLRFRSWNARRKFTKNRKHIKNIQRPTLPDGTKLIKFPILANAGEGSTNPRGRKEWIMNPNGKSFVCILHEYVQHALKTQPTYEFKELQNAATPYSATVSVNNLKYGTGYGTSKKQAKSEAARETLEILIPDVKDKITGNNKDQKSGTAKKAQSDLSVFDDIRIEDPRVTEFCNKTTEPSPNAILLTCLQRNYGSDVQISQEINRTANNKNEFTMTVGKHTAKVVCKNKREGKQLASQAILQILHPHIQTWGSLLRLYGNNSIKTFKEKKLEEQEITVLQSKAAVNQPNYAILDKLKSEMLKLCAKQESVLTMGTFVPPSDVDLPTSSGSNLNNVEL
The experiment is described as above.

The target of experiment [3] is Flag-tagged SmD1 (Drosophila) (UniProt Q9VU02). The experiment in a line: co-IP; lysates of S2 cells expressing Flag-tagged SmD1, immunoprecipitated with anti-SmD1 antibody or non-immune serum; immunoprecipitates treated with or without RNase A; immunoblotting with anti-GW182 and anti-Flag.
In experiment [4] the target is Flag-tagged Ran (control protein) (UniProt Q9VZ23). Nature of the experiment: co-IP; lysates of S2 cells expressing a Flag-tagged protein, immunoprecipitated with anti-Flag antibody; endogenous partners detected by immunoblotting; immunoprecipitates treated with or without RNase A (Fig 3A, 4D); lysis buffer 20 mM Tris-HCl pH 7.6, 150 mM NaCl, 2 mM EDTA, 10% glycerol, 1% Triton X-100, 1 mM DTT.

Experiment [5] has as its target Flag-tagged SmD1 (Drosophila) (UniProt Q9VU02). Described as above.
Experiment [6] shares this target. The experiment in a line: co-IP; lysates of S2 cells co-expressing a Flag-tagged protein (SmD1, other Sm proteins or Ran) and T7-tagged Pasha (full length or truncated), immunoprecipitated with anti-Flag antibody; immunoblotting with anti-T7, anti-SmD1 and anti-Flag.
For experiment [7], the target named is Flag-tagged SmD2 (Drosophila) (UniProt Q9VI10). The experiment is described as above.

These are yes or no findings as the source states them, for the method shown. Binding seen in cells or lysates may run through a third protein. Some binding calls cover weakened binding; strength is not graded here. For some of these results: Sequences can lack the tags named with a protein.

B1: endogenous Drosha (enzyme, UniProt Q7KNF1 1-1327)
chain: MYQPPLPPPPVQPAPPPPPPPPEEDLSPPGVGVPSHNYSSNESHSQSSKSLDYVYPETPAPYASSVPSYDPYQQPPAYGYEGYAYNEQAQKYGGQESHYQYQYPASGSSFLYESYKYPDRYPAYSSNYRPPSERQRYTSNSSSQGYHHYPGYSSGRRYEQRHDQEHRQIQDSRYAHEPRHGHYAHRQAKGSQHGYYGSAARNQVSDDYSPRGHHERERNETLEKTRAKPKVETERDRLLRQWCSNFCEKPEDYVKKMNALSEADAPVESWVRSSPAELYYERTKSENEVRGRARLQKLCTLFDEELLQRAKRVREKLPVYVPPPRKARRRVCKHKHKSEACSSSSSSDDDSDEDAFKIEQDCCMEELSRKVQHPQRVHADLWHNDAGEMNDGPLCRCSAKSRRIGIRHGIYPGETGYKLCDPNSNNAGKLFHYRISISPPTNFLTKTPTIIKHDEHEFLFEGFSLLSHVRLSDLPVCKVIRFNIEYTIEYEEEKMPENFTIHELDIFFKYLFHELLELVDFNLMPNLPSGNVEESCPAFHFFPRFVRDLPDNGKEVLAMVEVLRYLLDNSAQLVERQQLLHLNQISQSEWQNYVDFIKGMLVTKPGYKPCSLRVDQLDRNNSDLPECVDRETGISHPAIVHFGICHPQLSYAGNPEYQKAWREYVKYRHLMANMSKPSFKDKRKLEEKEQRLQEMRTQGRMKRNITVAISSEGFYRTGIMCDVVQHAMLIPVLTGHLRFHKSLDLLEESIGYRFKNRYLLQLALTHPSYKENYGTNPDHARNSLTNCGIRQPEYGDRKIHYMNTRKRGINTLVSIMSRFGKEHETVSNITHNERLEFLGDAVVEFLSSIHLFFMFPELEEGGLATYRAAIVQNQHLALLAKKLQLEEFMLYAHGSDLCHELELRHAMANCFEALMGALLLDGGIKVADEVFTDALFRQDEKLLSIWKNLPEHPLQEQEPLGDRSCIDSYRVLKELTKFEDSIGIKFKHIRLLARAFTDRSIGFTHLTLGSNQRLEFLGDTVLQLICSEYLYRHFPEHHEGHLSLLRSSLVNNRTQAVVCDDLGMPKYAVYANPKADLKTKDRADLLEAFLGALYVDKGLLYCEQFCHVCLFPRLQLFIMNQDWNDPKSKLQQCCLTLRTMDGGEPDIPYYKVVEASGPTNTRVYKVAVYFRSKRLATSSGSSIQQAEMNAAKQALENSRDLFPQLDHQKRVIAKSIKKQTGNELDNDSDRQHQEEKIKRPKYATPLQDESHLPKQYRMHENISSDELPEDEDFESTAPKSPTMPLRSNRSGSSSSSSSSDSDGSTSSPKCKRRLKKCSSVSSKSSLG
B1: the binding entry in experiment [1] and in experiment [2] was “binds” in each case.

B2: endogenous GW182 (protein, UniProt Q8SY33 1-1384)
chain: MREALFSQDGWGCQHVNQDTNWEVPSSPEPANKDAPGPPMWKPSINNGTDLWESNLRNGGQPAAQQVPKPSWGHTPSSNLGGTWGEDDDGADSSSVWTGGAVSNAGSGAAVGVNQAGVNVGPGGVVSSGGPQWGQGVVGVGLGSTGGNGSSNITGSSGVATGSSGNSSNAGNGWGDPREIRPLGVGGSMDIRNVEHRGGNGSGATSSDPRDIRMIDPRDPIRGDPRGISGRLNGTSEMWGHHPQMSHNQLQGINKMVGQSVATASTSVGTSGSGIGPGGPGPSTVSGNIPTQWGPAQPVSVGVSGPKDMSKQISGWEEPSPPPQRRSIPNYDDGTSLWGQQTRVPAASGHWKDMTDSIGRSSHLMRGQSQTGGIGIAGVGNSNVPVGANPSNPISSVVGPQARIPSVGGVQHKPDGGAMWVHSGNVGGRNNVAAVTTWGDDTHSVNVGAPSSGSVSSNNWVDDKSNSTLAQNSWSDPAPVGVSWGNKQSKPPSNSASSGWSTAAGVVDGVDLGSEWNTHGGIIGKSQQQQKLAGLNVGMVNVINAEIIKQSKQYRILVENGFKKEDVERALVIANMNIEEAADMLRANSSLSMDGWRRHDESLGSYADHNSSTSSGGFAGRYPVNSGQPSMSFPHNNLMNNMGGTAVTGGNNNTNMTALQVQKYLNQGQHGVAVGPQAVGNSSAVSVGFGQNTSNAAVAGAASVNIAANTNNQPSGQQIRMLGQQIQLAIHSGFISSQILTQPLTQTTLNLLNQLLSNIKHLQAAQQSLTRGGNVNPMAVNVAISKYKQQIQNLQNQINAQQAVYVKQQNMQPTSQQQQPQQQQLPSVHLSNSGNDYLRGHDAINNLQSNFSELNINKPSGYQGASNQQSRLNQWKLPVLDKEINSDSTEFSRAPGATKQNLTANTSNINSLGLQNDSTWSTGRSIGDGWPDPSSDNENKDWSVAQPTSAATAYTDLVQEFEPGKPWKGSQIKSIEDDPSITPGSVARSPLSINSTPKDADIFANTGKNSPTDLPPLSLSSSTWSFNPNQNYPSHSWSDNSQQCTATSELWTSPLNKSSSRGPPPGLTANSNKSANSNASTPTTITGGANGWLQPRSGGVQTTNTNWTGGNTTWGSSWLLLKNLTAQIDGPTLRTLCMQHGPLVSFHPYLNQGIALCKYTTREEANKAQMALNNCVLANTTIFAESPSENEVQSIMQHLPQTPSSTSSSGTSGGNVGGVGTSANNANSGSAACLSGNNSGNGNGSASGAGSGNNGNSSCNNSAAGGGSSSNNTITTVANSNLVGSSGSVSNSSGVTANSSTVSVVSCTASGNSINGAGTANSSGSKSSANNLASGQSSASNLTNSTNSTWRQTSQNQALQSQSRPSGREADFDYISLVYSIVDD
For the molecule B2, the binding result in experiment [3] is on record as “binds”.

B3: endogenous Pasha (protein, UniProt Q9V9V7 1-642)
chain: MAEKPLADCPDSGQVRKRPRLEDEEQELKVAGFSLSAIEEMRRTRDNELQNEPMDQQLRQFQVLDEVGSGSDEDDESDNASEQQGGRYGEGGDEEEEAADGDGEEYDSSEFDDDEIENLLDEKLPEELRESKQPKYEQRFKTVLEEKRLNHFEVLPEGWVQVTHNSGMPLFLHRKTRVCCASRPYFLGTGSARKHAVPLGAIPCLNYRRALEEESEVEQQKTDGAPPVAVCPMAGASALPAEAMDVEGKENNEGSTDSKTQPDGITALMPAAKIVTVNENTQKESITPEQLNTYCQKLFKFKVIRVLRFRSWNARRKFTKNRKHIKNIQRPTLPDGTKLIKFPILANAGEGSTNPRGRKEWIMNPNGKSFVCILHEYVQHALKTQPTYEFKELQNAATPYSATVSVNNLKYGTGYGTSKKQAKSEAARETLEILIPDVKDKITGNNKDQKSGTAKKAQSDLSVFDDIRIEDPRVTEFCNKTTEPSPNAILLTCLQRNYGSDVQISQEINRTANNKNEFTMTVGKHTAKVVCKNKREGKQLASQAILQILHPHIQTWGSLLRLYGNNSIKTFKEKKLEEQEITVLQSKAAVNQPNYAILDKLKSEMLKLCAKQESVLTMGTFVPPSDVDLPTSSGSNLNNVEL
Regarding B3, the binding result in experiment [4] is given as “no binding”; in experiment [5] it was “binds”.

B4: T7-tagged full length Pasha (protein, UniProt Q9V9V7 1-642)
chain: MAEKPLADCPDSGQVRKRPRLEDEEQELKVAGFSLSAIEEMRRTRDNELQNEPMDQQLRQFQVLDEVGSGSDEDDESDNASEQQGGRYGEGGDEEEEAADGDGEEYDSSEFDDDEIENLLDEKLPEELRESKQPKYEQRFKTVLEEKRLNHFEVLPEGWVQVTHNSGMPLFLHRKTRVCCASRPYFLGTGSARKHAVPLGAIPCLNYRRALEEESEVEQQKTDGAPPVAVCPMAGASALPAEAMDVEGKENNEGSTDSKTQPDGITALMPAAKIVTVNENTQKESITPEQLNTYCQKLFKFKVIRVLRFRSWNARRKFTKNRKHIKNIQRPTLPDGTKLIKFPILANAGEGSTNPRGRKEWIMNPNGKSFVCILHEYVQHALKTQPTYEFKELQNAATPYSATVSVNNLKYGTGYGTSKKQAKSEAARETLEILIPDVKDKITGNNKDQKSGTAKKAQSDLSVFDDIRIEDPRVTEFCNKTTEPSPNAILLTCLQRNYGSDVQISQEINRTANNKNEFTMTVGKHTAKVVCKNKREGKQLASQAILQILHPHIQTWGSLLRLYGNNSIKTFKEKKLEEQEITVLQSKAAVNQPNYAILDKLKSEMLKLCAKQESVLTMGTFVPPSDVDLPTSSGSNLNNVEL
Turning to B4, the binding entry in experiment [6] and in experiment [7] was “binds” each time.

Values taken from article PMC4550278.
